{
  "source": "the supplement of paper PMC4604168 (melanoma cell lines)",
  "note": "The list shows a part of the results. Most values come without repeats; read them as rough.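 Further: cell number obtained by counting DAPI-stained nuclei in high-throughput microscope images with image analysis software, screen run in 1,536-well plates.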",
  "data": [
    {"test_system": "RPMI7951", "test": "cell count relative to DMSO control; melanoma cells; higher = more viable cells", "conditions": "library dose: low library concentration; 72 h", "units": {"cell count": "%"}, "values": [
      {"smiles": "Cn1cc(C2=C(c3cn(C4CCN(Cc5ccccn5)CC4)c4ccccc34)C(=O)NC2=O)c2ccccc21", "note": "[Enzastaurin] + C[C@]12O[C@H](C[C@]1(O)CO)n1c3ccccc3c3c4c(c5c6ccccc6n2c5c31)CNC4=O [Lestaurtinib] (first compound 0.8 µM, partner dose 0.004 µM)", "cell count": 97.5},
      {"smiles": "C[C@]12O[C@H](C[C@]1(O)CO)n1c3ccccc3c3c4c(c5c6ccccc6n2c5c31)CNC4=O", "note": "[Lestaurtinib] + CS(=O)(=O)CCNCc1ccc(-c2ccc3ncnc(Nc4ccc(OCc5cccc(F)c5)c(Cl)c4)c3c2)o1 [lapatinib] (first compound 0.004 µM, partner dose 0.8 µM)", "cell count": 106},
      {"smiles": "C[C@]12O[C@H](C[C@]1(O)CO)n1c3ccccc3c3c4c(c5c6ccccc6n2c5c31)CNC4=O", "note": "[Lestaurtinib] + Clc1ccc(Nc2nnc(Cc3ccncc3)c3ccccc23)cc1 [vatalanib] (first compound 0.004 µM, partner dose 2 µM)", "cell count": 95.5},
      {"smiles": "C[C@]12O[C@H](C[C@]1(O)CO)n1c3ccccc3c3c4c(c5c6ccccc6n2c5c31)CNC4=O", "note": "[Lestaurtinib] + Cc1cc(Nc2cc(N3CCN(C)CC3)nc(/C=C/c3ccccc3)n2)n[nH]1 [ENMD2076] (first compound 0.004 µM, partner dose 0.04 µM)", "cell count": 109},
      {"smiles": "C[C@]12O[C@H](C[C@]1(O)CO)n1c3ccccc3c3c4c(c5c6ccccc6n2c5c31)CNC4=O", "note": "[Lestaurtinib] + C#Cc1cccc(Nc2ncnc3cc(OCCOC)c(OCCOC)cc23)c1 [erlotinib] (first compound 0.004 µM, partner dose 0.8 µM)", "cell count": 88.6},
      {"smiles": "C[C@]12O[C@H](C[C@]1(O)CO)n1c3ccccc3c3c4c(c5c6ccccc6n2c5c31)CNC4=O", "note": "[Lestaurtinib] + Nc1ncn([C@H]2C[C@H](O)[C@@H](CO)O2)c(=O)n1 [decitabine] (first compound 0.004 µM, partner dose 0.1 µM)", "cell count": 83.3},
      {"smiles": "C[C@]12O[C@H](C[C@]1(O)CO)n1c3ccccc3c3c4c(c5c6ccccc6n2c5c31)CNC4=O", "note": "[Lestaurtinib] + COCC[n+]1c2c(n(Cc3cnccn3)c1C)C(=O)c1ccccc1C2=O [YM155] (first compound 0.004 µM, partner dose 0.0004 µM)", "cell count": 103},
      {"smiles": "C[As](C)SC[C@H](NC(=O)CC[C@H](N)C(=O)O)C(=O)NCC(=O)O", "note": "[Darinaparsin] + COC(=O)c1sccc1S(=O)(=O)Nc1ccc(Nc2ccccc2)cc1OC [GSK0660] (first compound 0.4 µM, partner dose 1 µM)", "cell count": 125},
      {"smiles": "C[C@]12O[C@H](C[C@]1(O)CO)n1c3ccccc3c3c4c(c5c6ccccc6n2c5c31)CNC4=O", "note": "[Lestaurtinib] + C[C@]1(c2nc3c(C(N)=O)cccc3[nH]2)CCCN1 [Veliparib] (first compound 0.004 µM, partner dose 1.4 µM)", "cell count": 96.9},
      {"smiles": "C[As](C)SC[C@H](NC(=O)CC[C@H](N)C(=O)O)C(=O)NCC(=O)O", "note": "[Darinaparsin] + O=C(Oc1ccc([N+](=O)[O-])cc1)N1CCC(C(O)(c2ccc3c(c2)OCO3)c2ccc3c(c2)OCO3)CC1 [JZL184] (first compound 0.4 µM, partner dose 1 µM)", "cell count": 124}
    ]}
  ]
}
